# According to article PMC4336329 (PLoS ONE, 2015):
# The campaign covered roughly 310,000 compounds. About 2,200 (0.71%) showed an effect of 50% or more. Effects have a minus sign here. This is one part of the list.
# Target: human ether-à-go-go-related gene (hERG) potassium channel (human, UniProt Q12809)
# Experiment: primary screen, population patch clamp on CHO cells stably expressing hERG
# Chain of human ether-à-go-go-related gene (hERG) potassium channel (Q12809 whole entry, looked up): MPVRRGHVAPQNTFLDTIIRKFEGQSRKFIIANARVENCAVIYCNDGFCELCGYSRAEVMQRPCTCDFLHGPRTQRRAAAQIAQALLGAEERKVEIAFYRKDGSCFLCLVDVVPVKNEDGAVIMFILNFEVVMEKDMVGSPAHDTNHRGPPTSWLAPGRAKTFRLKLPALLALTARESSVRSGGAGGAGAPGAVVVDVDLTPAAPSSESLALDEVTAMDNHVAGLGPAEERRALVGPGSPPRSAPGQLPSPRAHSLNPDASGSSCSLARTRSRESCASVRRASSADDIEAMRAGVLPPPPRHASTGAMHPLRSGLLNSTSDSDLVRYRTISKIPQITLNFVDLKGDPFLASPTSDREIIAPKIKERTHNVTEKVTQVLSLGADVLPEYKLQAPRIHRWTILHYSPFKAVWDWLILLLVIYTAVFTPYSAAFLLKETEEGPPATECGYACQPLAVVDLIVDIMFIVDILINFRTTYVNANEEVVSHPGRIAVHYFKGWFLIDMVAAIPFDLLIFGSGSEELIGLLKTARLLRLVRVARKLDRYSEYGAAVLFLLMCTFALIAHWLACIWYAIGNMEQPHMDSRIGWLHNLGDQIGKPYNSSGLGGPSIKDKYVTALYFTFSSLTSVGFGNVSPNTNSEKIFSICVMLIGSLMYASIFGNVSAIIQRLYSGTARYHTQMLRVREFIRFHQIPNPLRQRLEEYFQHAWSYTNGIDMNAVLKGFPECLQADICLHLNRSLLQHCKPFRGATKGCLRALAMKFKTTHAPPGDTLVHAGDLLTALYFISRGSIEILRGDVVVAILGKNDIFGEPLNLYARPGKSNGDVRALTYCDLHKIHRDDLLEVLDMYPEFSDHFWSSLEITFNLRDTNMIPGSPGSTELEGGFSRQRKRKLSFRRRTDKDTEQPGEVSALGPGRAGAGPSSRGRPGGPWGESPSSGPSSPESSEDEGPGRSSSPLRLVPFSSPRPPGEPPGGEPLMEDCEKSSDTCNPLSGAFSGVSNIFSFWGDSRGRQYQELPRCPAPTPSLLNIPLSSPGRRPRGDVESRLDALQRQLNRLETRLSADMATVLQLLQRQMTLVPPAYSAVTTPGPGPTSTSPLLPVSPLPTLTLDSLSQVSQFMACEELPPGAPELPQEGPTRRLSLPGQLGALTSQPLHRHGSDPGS
row,Structure (SMILES),"hERG current change (%, negative = inhibition) at 1uM"
1,Cn1cc(Br)c(C(=O)N/N=C/c2cccc(OC3CSC3)c2)n1,3.34%
2,CCN(CC)S(=O)(=O)c1cccc(-n2c(O)c(C=Nc3ccccc3C(=O)O)c3ccccc3c2=O)c1,6.37%
3,CC(=O)c1ccc(NS(=O)(=O)c2ccc3ccccc3c2)cc1,5.22%
4,Cc1ccc(C)c(NC(=O)Cc2csc(-c3ccccc3)n2)c1,-0.929%
5,O=C1NC(c2cccs2)C(C(=O)c2ccccc2)C(O)(C(F)(F)F)N1 (stereo not drawn),10.5%
6,CCOC(=O)C1C(c2ccc(OC)c(OC)c2)c2c([nH][nH]c2=O)CC1(C)O (stereo not drawn),9.25%
7,CCOC(=O)c1[nH]c(C)c(/C(O)=C2\C(=O)C(=O)N(CCCN(C)C)C2c2cccnc2)c1C (stereo not drawn),6.37%
8,COc1cccc(OCc2nnc(SCC(=O)OC3CCCCC3)n2C)c1,8.11%
9,CCN1CCN(C(c2ccccc2)c2sc3nc(C)nn3c2O)CC1 (stereo not drawn),3.27%
10,Cn1cccc1/C=N/NC(=O)c1ccncc1,10.2%
11,CC(=N\NC(=O)c1cc(Br)ccc1O)/C(=N/O)C(=O)Nc1ccccc1,31.2%
12,COC(=O)CSc1nnc2cc(C)c3ccccc3n12,3.72%
13,CCOc1ccccc1NC(=O)Cn1c(=O)oc2ccccc21,8.7%
14,Cc1ccc(C)c(NC(=O)CCC(=O)NNS(=O)(=O)c2ccc(Cl)cc2)c1,5.02%
15,CCCOc1ccccc1OCC(=O)N1CCN(S(=O)(=O)c2ccc(Cl)cc2)CC1,7.66%
16,COc1ccc(CCNC(=O)Cn2c(=O)c3cccn3c3cccnc32)c(OC)c1OC,7.3%
17,Cc1ccc(S(=O)(=O)N2CCCC(C(=O)NC3CCCC3)C2)cc1 (stereo not drawn),14%
18,O=C(c1ccc(F)c(F)c1)N1CCCc2ccccc21,10.1%
19,O=C(Cn1cnc2cc([N+](=O)[O-])ccc2c1=O)Nc1ccccc1-c1ccccc1,3.1%
20,Cc1cc(C)n2nc(-c3cnn(C)c3C(F)(F)F)cc2n1,1.96%
21,Cn1c(=O)[nH]c(=O)c2c1nc(N1CCCCCC1)n2CCCSc1nnnn1-c1ccccc1,-14.2%
22,COc1ccccc1CNC(=O)C1CCCCN1S(=O)(=O)c1ccccc1 (stereo not drawn),-11.4%
23,O=C(/C=C/c1ccccc1Cl)N1CCOCC1,16.6%

row,Structure (SMILES),"hERG current change (%, negative = inhibition) at 1uM"
1,CCOC(=O)c1[nH]c(C)c(/C(O)=C2\C(=O)C(=O)N(CCCN(CC)CC)C2c2cccnc2)c1C (stereo not drawn),4.8%
2,C/C(=N\O)c1c(C)c2ccccc2n1C,-3.85%
3,C/C(CC(=O)Nc1ccccc1C#N)=N\NC(=O)c1ccncc1,9.16%
4,CCCCCCNC(=O)CCCCCNS(=O)(=O)c1ccc(Br)cc1,7.97%
5,CC(C)(C)C(=O)N(CCN(C(=O)C(C)(C)C)c1ccccc1)c1ccccc1,15.5%
6,Cc1ccc(NC(=O)C2(c3cccs3)CCOCC2)cc1C,3.31%
7,CSc1nc2nc(-c3cccc(C(F)(F)F)c3)ccn2n1,4.47%
8,O=C(COc1ccc(Cl)cc1)NCCSCc1cccc(Cl)c1,0.26%
9,O=C1CC(Nc2ccc(N3CCOCC3)cc2)C(=O)N1C1CCCCC1 (stereo not drawn),6.85%
10,Cc1ccc(-c2nc(CS(=O)CC(=O)NCCN3CCCCCC3)c(C)o2)cc1 (stereo not drawn),15.5%
11,Cc1ccc(NS(=O)(=O)c2cc(C(=O)NCCSC3CCCCC3)ccc2C)cc1,-2.03%
12,COc1c(F)c(F)c(C(=O)O)c(Nc2cc(C)cc(C)c2)c1F,11.3%
13,CCNC(=O)/C(C#N)=C/c1c(N2CCN(c3ccc(OC)cc3)CC2)nc2c(C)cccn2c1=O,18.6%
14,Cc1cc(C(=O)COc2cccnc2[N+](=O)[O-])c(C)n1Cc1cccs1,2.44%
15,C=CCn1nc(-c2ccccc2)c(N2CCCCC2)cc1=O,10%
16,COc1ccccc1/C=C/C1(C(=O)NC2CCCC2)CC(=O)N1c1ccc(F)cc1 (stereo not drawn),10.9%
17,CCOC(=O)c1cc(-c2ccccc2)n(CC(=O)Nc2cc(OC)cc(OC)c2)c1C,16%
18,CCOC(=O)C1(Cc2ccccc2)C(=O)N(CCCN(C)C)c2ccccc21.Cl (stereo not drawn),5.69%
19,COc1cc(OC)cc(C(=O)NC(=S)Nc2ccc(NC(=O)c3ccco3)cc2)c1,6.89%
20,CCCCC(=O)C1CCN(Cc2ccccc2)CC1,-11%
21,Cc1cc(OCCCCNC(C)C)cc(C(C)C)c1.O=C(O)C(=O)O,-4.28%
22,CC(C)COP(=O)(OCC(C)C)C(O)c1cccnc1 (stereo not drawn),9.56%
23,COc1cccc(C(C)NC(=S)NCc2ccc(Cl)cc2)c1 (stereo not drawn),10.1%

row,Structure (SMILES),"hERG current change (%, negative = inhibition) at 1uM"
1,CCc1ccc(C(=O)COC(=O)c2cnc(C)cn2)cc1,8.58%
2,Cc1nc2ccc([N+](=O)[O-])cc2c(=O)n1Cc1ccc(Cl)cc1,10.5%
3,O=C(/C=C/c1ccco1)NC(=S)Nc1cccc([N+](=O)[O-])c1,13.3%
4,O=C(CCc1nc(-c2ccccc2)no1)NCc1ccccc1CN1CCOCC1,11.9%
5,O=C1C=C(NCC2CCCO2)C2(CCCCC2)O1 (stereo not drawn),15.6%
6,CC(C)C(=O)NC(=S)Nc1ccccc1F,9.48%
7,O=C(Cn1ncc2c3ccccc3n(Cc3ccccc3F)c2c1=O)NCC1CCCO1 (stereo not drawn),19.1%
8,O=C(Cc1cccc2ccccc12)Nc1ccc(O)cc1C(=O)O,13%
9,N#CCCN(C(=O)CSc1nc(-c2ccccc2)cn1N)c1ccc(F)cc1,8.5%
10,O=C(CCS(=O)(=O)Cc1ccccc1)NCCc1ccccc1,11.4%
11,COc1ccccc1/C=C/C(=O)N1CCC(c2ccccc2)C1 (stereo not drawn),19.3%
12,CCCCNS(=O)(=O)c1ccc2nc(SCC(N)=O)[nH]c2c1,10.2%
13,Cc1cc2c(cc1C)-c1c(ssc1=Nc1ccc(S(N)(=O)=O)cc1)C(C)(C)N2,9.34%
14,COC(=O)c1ccc(NC(=O)Nc2ccc([N+](=O)[O-])cc2)cc1,10.9%
15,O=C(CNC(=O)c1ccco1)OCC(=O)c1ccccc1,17.6%
16,C=CCOC(=O)C1=C[C@@H](c2csc3ccccc23)C[C@@H](OCCCCO)O1,11.8%
17,C=CCC1(N(C(C)=O)c2ccccc2C)CCCCC1,7.18%
18,O=C(/C=C/c1ccccc1Cl)NC1CCCCC1,12.8%
19,O=C(COC(=O)c1cccs1)Nc1cc(S(=O)(=O)N2CCOCC2)ccc1Cl,6.72%
20,O=C(CN(C(=O)CCC(=O)Nc1nccs1)c1ccccc1F)NCc1ccc(F)cc1,7.27%
21,O=C(CCNC(=O)c1ccco1)Nc1cccc(Br)c1,-0.74%
22,Cc1ccc(C(=O)COC(=O)CSc2cccc3cccnc23)c(C)c1,7.69%
23,CCOc1cccc(-c2nnc(SCC(=O)NC3CC3)n2C)c1,-0.121%

row,Structure (SMILES),"hERG current change (%, negative = inhibition) at 1uM"
1,CC(=O)NCCc1nc2ccccc2n1CCCCOc1ccccc1,10.5%
2,C=CC(O)Cc1c(C)n[nH]c1C (stereo not drawn),-1.39%
3,Cc1cc(CSc2ccccc2C(=O)O)on1,11.6%
4,C[C@]12C(=O)N(c3cccc(F)c3)C(=O)N1[C@@H]1c3ccccc3OC[C@@H]1[C@H]2c1ccccc1,13.2%
5,COCCn1c(N)c(C(=O)Nc2sc3c(c2C(=O)OC)CCCC3)c2nc3ccccc3nc21,12.9%
6,O=C1C(=O)N(CCCO)C(c2ccc(Br)cc2)/C1=C(\O)c1ccc(Br)cc1 (stereo not drawn),7.55%
7,O=P1(Nc2ccc(F)cc2)COc2ccccc2OC1,4.15%
8,O=C(Cc1ccccc1)Nc1cccc(-c2nc3ncccc3o2)c1,18.9%
9,Cc1ccc(N2C(=O)Cc3ccccc3C2=O)cc1,13.6%
10,O=S(=O)(Nc1ccc(Cl)cn1)c1ccc(Cl)cc1,16.8%
11,CSCC(=O)N1CCC(Oc2cccc(C(=O)NCc3ccccn3)c2)CC1,15.6%
12,O=C(O)COc1ccccc1/C=N/NC(=O)CSc1nc2ccccc2n1Cc1ccc(Cl)cc1,14.2%
13,C=CCn1c(SCC(=O)Nc2ccc(OC)cc2)nnc1-c1cnccn1,12.5%
14,CC(/C=N/NC(=O)NC1CCCCC1)=C\c1ccccc1,35.6%
15,CN(CC(=O)NCCc1ccc(S(N)(=O)=O)cc1)Cc1ccc(Cl)cc1Cl,4.62%
16,Cc1cc(C)cc(NC(=O)N2CCCN(c3ncccc3[N+](=O)[O-])CC2)c1,7.23%
17,COP(=O)(CC(=O)O)c1ccccc1 (stereo not drawn),-4.94%
18,Cc1cc(C(=O)COc2ccc(Cl)cc2Br)c(C)n1C,16.4%
19,CC1(C)NC(=O)N(CCCCOc2ccc(Cl)cc2C=O)C1=O,9.37%
20,Cc1c(NC(=O)Nc2ccc([N+](=O)[O-])cc2)c(=O)n(-c2ccccc2)n1C,5.1%
21,NC(=O)[C@@H]1CC2(CC(c3cccc(NC(=O)COc4ccc(Cl)cc4)c3)=NO2)CN1C(=O)c1ccccc1 (stereo partly drawn),9.23%
